# Entries with a single value are a further part of the results.
# Assays:
# [1] = target: Panitumumab kappa light chain (wild-type) (human); test: LCMS of Fabs cleaved from IgG; 2 HC + 2 LC co-expressed in HEK293
# [2] = target: Ustekinumab lambda fusion light chain (human); test: as above
# [3] = with Pani K147F S183K heavy chain
# [4] = with Pani K147F S183R heavy chain
# [5] = with Pani K147F S183Y heavy chain
# [6] = with Pani wild-type heavy chain
substance,measurement,setting,value
"Ustekinumab heavy chain, CH1 A141D (from UniProt P01857 1-101)",% HC2-LC1 product,[1]; [3],10.5%
same,% HC2-LC1 product,[1]; [4],6.8%
same,% HC2-LC1 product,[1]; [5],11%
same,% HC2-LC1 product,[1]; with Pani S183R heavy chain,12.9%
same,% HC2-LC1 product,[1]; [6],9.9%
same,% HC2-LC2 product,[2]; [3],39.8%
same,% HC2-LC2 product,[2]; [4],43.1%
same,% HC2-LC2 product,[2]; [5],42.8%
same,% HC2-LC2 product,[2]; with Pani S183K heavy chain,41.6%
same,% HC2-LC2 product,[2]; with Pani S183R heavy chain,34%
same,% HC2-LC2 product,[2]; with Pani S183Y heavy chain,41.5%
same,% HC2-LC2 product,[2]; [6],39%

# — US20230265134A1
